The record followed here is ChEMBL document CHEMBL4888484, “Replenishing the malaria drug discovery pipeline: Screening and hit evaluation of the MMV Hit Generation Library 1 (HGL1) against asexual blood stage Plasmodium falciparum ,using a nano luciferase reporter read-out” (2022).

The campaign covered roughly 150,000 compounds. About 540 (0.36%) showed an effect of 50% or more. Some of the results follow.

The assay relates to Plasmodium falciparum. The assay can be described thus: Primary screen in NF54 nanoGlo assay, in single point, at 2uM, 72h; a lower Z score goes with more inhibition. It counts as functional, Erythrocyte. Conditions: timepoint 72 hour.
In the case of `COCCN1C[C@@H](Cc2cc(C)cc(C)n2)CC1=O`, the “% Inhibition” value was -12% and the Z score stood at 1.27.

For `Cc1ncsc1CNC(C)CCC1CC1(Cl)Cl` (stereo unspecified), the “% Inhibition” value is -10% and the Z score was 1.83.

Consider `Cn1cc(CNc2ccc3[nH]c(=O)[nH]c3c2)c(C(C)(C)C)n1`, for which the “% Inhibition” value is given as -5% and the Z score was 0.71.

For the molecule `c1csc(OC2CCN(C3CCNCC3)CC2)n1`, the “% Inhibition” value is on record as -8% and the Z score was found to be 0.99.

As to `CC[C@@H]1NC(=O)N(c2cccc(NC(=O)c3nccnc3N)c2)C1=O`, the “% Inhibition” value is listed as -5% and the Z score is 0.84.

Take `COCCn1ccnc1CN(Cc1ccsc1)C1CCCCC1`: the “% Inhibition” value was -20% and the Z score is 1.9.

For `NC(=O)CN1CCCN(c2ncc(Cl)c(N3CCCN(CC(N)=O)CC3)n2)CC1`, the “% Inhibition” value was -27% and the Z score was 3.18.

Take `CC(C)(C)c1ccncc1CNC(=O)N1CC[C@@H]2OCC(=O)N[C@H]2C1`: the “% Inhibition” value is 20% and the Z score is given as -2.59.

Turning to `CC(C(=O)NCc1ccco1)N1CCCCC1Cn1cncn1` (stereo unspecified), the “% Inhibition” value is reported as -17% and the Z score amounted to 1.43.

In the case of `Cc1cc(C(=O)NS(=O)(=O)CCC2CCOCC2)nn1C(C)C`, the “% Inhibition” value is reported as -8% and the Z score was 1.4.

As for `C[C@H]1CN(CCC(=O)O)Cc2cc(Cl)ccc2O1`, the “% Inhibition” value is -2% and the Z score amounted to 0.25.

As to `Cc1occc1C(=O)Nc1cc(C2CC2)nn1[C@H]1CCS(=O)(=O)C1`, the “% Inhibition” value was -11% and the Z score is listed as 1.12.

On to `COc1cccc(CN(Cc2nc(C(=O)NCCN3CCOCC3)co2)[C@@H](C)C(C)C)c1`, for which the “% Inhibition” value is -13% and the Z score is 1.32.

In the case of `O=C(NCc1nnc2n1CC[C@H](C(F)(F)F)C2)c1ccc(=O)[nH]c1`, the “% Inhibition” value was 12% and the Z score is -1.54.

As to `CC(NC(=O)C(C)N1C(C)CCC1C)c1ccc(-n2ccnn2)cc1` (stereo unspecified), the “% Inhibition” value is reported as -1% and the Z score is recorded as 0.13.

With `CCc1csc(CNC(=O)c2cncc(O)n2)n1`, the “% Inhibition” value is -21% and the Z score stood at 2.02.

`CCO[C@H]1COC[C@@H]1Nc1nc2ccc(Cl)cc2s1`: the “% Inhibition” value worked out at 7% and the Z score is on record as -0.97.

As for `Cc1noc(C)c1CNC(=O)c1cn(CC2(O)CCN(Cc3ccccc3)CC2)nn1`, the “% Inhibition” value is given as 28% and the Z score is -3.14.

As for `CCN(Cc1cnsn1)[C@@H](C)c1cccc(OC)c1`, the “% Inhibition” value was -8% and the Z score was 1.04.

In the case of `Cc1ccc(S(=O)(=O)c2c(NS(=O)(=O)c3ccccc3)n(CCc3ccccc3)c3nc4ccccc4nc23)cc1`, the “% Inhibition” value worked out at 99% and the Z score is on record as -11.17.

In the case of `CCN1CCN(C(=O)[C@@H](NC(=O)c2cc3n(n2)CCCN(Cc2ccccc2)C3=O)C(C)C)CC1`, the “% Inhibition” value is recorded as -8% and the Z score was 0.83.

`Cn1cc([C@H]2CN(Cc3cc(F)ccc3F)C[C@H]2CC(=O)O)nn1`: the “% Inhibition” value is on record as -25% and the Z score came out at 2.17.

As to `CCn1cnc2c1CN(C(=O)c1ccco1)CC2`, the “% Inhibition” value was -11% and the Z score is 1.23.

For `C[C@@H](CNCc1nnc2ccccn12)c1cccc(Cl)c1`, the “% Inhibition” value is recorded as -8% and the Z score came to 1.01.

As for `CNc1ncccc1C(=O)N1CCN2C(=O)OC[C@H]2C1`, the “% Inhibition” value is -7% and the Z score is given as 1.46.

Consider `CCN(CC1CCN(c2ccccn2)CC1)C1CC(C)OC1=O` (stereo unspecified), for which the “% Inhibition” value is 4% and the Z score is -0.33.

Take `CC(C)NC(=O)CN(C)CC(=O)NC[C@H](O)c1c(Cl)cccc1Cl`: the “% Inhibition” value is on record as -4% and the Z score is recorded as 0.46.

In the case of `O=C(c1nccc2ccccc12)N1CCc2ccccc21`, the “% Inhibition” value is recorded as -4% and the Z score was 0.46.

Consider `O=c1cc(C(F)(F)F)nc(-n2[nH]c3c(c2=O)CCCC3)[nH]1`, for which the “% Inhibition” value came to 30% and the Z score is recorded as -3.81.

With `C[C@H](NCc1ncc(Br)s1)c1ccc(C#N)cc1`, the “% Inhibition” value was -9% and the Z score was 1.3.

Take `O=C(CCn1cncn1)N1CCC[C@@]2(CCC(=O)N(Cc3ccccn3)C2)C1`: the “% Inhibition” value is listed as -2% and the Z score worked out at 0.19.

With `Cc1nn(-c2ccccc2)c(Oc2ccc(F)cc2)c1CN(C[C@H](O)COC(C)(C)C)C1CC1`, the “% Inhibition” value worked out at 4% and the Z score was -0.61.

For `O=C(C[C@@H]1NC(=O)N(CCc2ccccc2)C1=O)NCc1nc2ccccc2[nH]1`, the “% Inhibition” value is -7% and the Z score worked out at 0.91.

With `COc1ccc(CCN[C@H]2CCCS(=O)(=O)C2)cc1OC`, the “% Inhibition” value is -8% and the Z score was 1.18.

In the case of `O=S1(=O)NC(CN2CCC[C@H](CN3CCCCCC3)C2)=Nc2ccccc21`, the “% Inhibition” value is listed as -7% and the Z score came to 0.95.

In the case of `COc1cccc(CNC[C@H](O)COc2cccc3ccccc23)c1`, the “% Inhibition” value is given as -4% and the Z score is recorded as 0.68.

On to `COC1(C)CC(NS(C)(=O)=O)C1(C)C` (stereo unspecified), for which the “% Inhibition” value is reported as -12% and the Z score came out at 2.18.

For the molecule `CNC(=NCc1nc(C2CC2)cs1)NCc1ccco1`, the “% Inhibition” value is -8% and the Z score was 1.34.

Consider `COc1ccc2[nH]cc([C@H](CC(=O)Nc3ccccc3)c3ccc(Cl)c(C(F)(F)F)c3)c2c1`, for which the “% Inhibition” value was -9% and the Z score is reported as 1.09.

As for `Cc1cc(C)n(Cc2ccccc2)c(=O)n1`, the “% Inhibition” value is reported as -45% and the Z score was determined as 5.29.

In the case of `C[C@H]1c2cccn2CCN1CC(=O)Nc1ccc2c(c1)OCCCO2`, the “% Inhibition” value was -11% and the Z score came out at 1.76.

`Cc1cccnc1C1CCCC(Nc2cccc(NC(N)=O)c2)C1` (stereo unspecified): the “% Inhibition” value came to 0% and the Z score came out at 0.02.

As to `Cc1ccc(CCC(=O)N[C@H]2CN(CC(N)=O)C[C@@H]2C(C)C)cc1C`, the “% Inhibition” value is recorded as -8% and the Z score stood at 0.89.

Consider `CC(=O)Nc1c2n(c3ccc(F)cc13)CC(C)(C(=O)NC1CCCC1)N(CC1CCCO1)C2=O` (stereo unspecified), for which the “% Inhibition” value is given as -13% and the Z score is 1.23.

In the case of `CCOC(=O)c1cc2n(n1)C[C@@](C)(C(=O)NCCC(C)C)N(c1cccc(C)c1C)C2=O`, the “% Inhibition” value is recorded as -6% and the Z score was 0.75.

As to `O=C(Cc1noc(-c2occ3c2CCC3)n1)N(CC(F)(F)F)C1CC1`, the “% Inhibition” value amounted to 2% and the Z score is -0.26.

For the molecule `Clc1cc(Cl)cc(N[C@H](c2cccnc2)c2ncc[nH]2)c1`, the “% Inhibition” value is given as 14% and the Z score is -2.48.

Regarding `COC(=O)Nc1cccc(OS(=O)(=O)[C@@H]2CCCC[C@@H]2OC)c1`, the “% Inhibition” value was -3% and the Z score is given as 0.42.

In the case of `Cc1cccc(C(=O)NCc2cccnc2N2CCC[C@H](O)C2)n1`, the “% Inhibition” value came to 9% and the Z score is reported as -1.18.

As to `O=c1[nH]nc2ccc(NCCc3csc(-c4ccccc4)n3)nn12`, the “% Inhibition” value is -9% and the Z score stood at 1.4.

As for `Cc1nc(CC2CC2)oc1C(=O)N1CCC(Nc2nccs2)CC1`, the “% Inhibition” value is listed as -10% and the Z score is recorded as 1.49.

Regarding `CC(C)(C)OC(=O)Nc1ccc2c(c1)OCCNC2`, the “% Inhibition” value is listed as -3% and the Z score is listed as 0.25.

With `CC[C@@H]1CN(C(=O)Cc2ccc3c(c2)OCO3)CC[C@]1(C)O`, the “% Inhibition” value was determined as 3% and the Z score is recorded as -0.24.

What is called % Inhibition is the relative decrease from the control value, in per cent.
